In the RNAGym collection of RNA variant scans (doi:10.7554/elife.90254):
Read counts are not given, so values of variants with three or more changes are uncertain.

B1: OR4K15 (parent)
chain: GUUAACGGUCAUAGGCCAUGGAAACUAGGAGCACCAUUUCGCUGCCAGUGAAGAAAUGAACAAAGAAAAUCUGGGCCAGGCAGGCAUCAAAAGAAAUAGUCUUGCGCUCAACCAGAAAGUCUGUAAUCAUUUUAAGGGUA

Variants of: B1
Assay: self-cleavage, relative activity (ratio to wild type); higher = more cleavage; in vitro, sequencing; the parent is a self-cleaving ribozyme

Row | Variant | self-cleavage
1 | U9C U19C A98G U103C | 0.06
2 | A11G A24G A92G | 0.6
3 | U9C U49C A64U A110G | 0.11
4 | U9C U39A A111G | 0.03
5 | A11G A60G U139A | 0.64
6 | U9C A94G A98G | 1.21
7 | U9C A66G U108A | 0.04
8 | U9C A55G A69G A91G | 1.26
9 | U9C G58U A62U U70C A134U | 0.92
10 | U9C A62G U124C | 0.53
11 | A11G A36C A59G A64U | 1.31
12 | U9C G53U A64G A67G A96G A111U | 0.23
13 | A11G A51G A78G A82G | 0.15
14 | A11G A62G A68G | 1.17
15 | A11G A18U U43C U49C A125G | 0.18
16 | C10U A63G U100C | 1.81
17 | A11G A33G U127C U139C | 0.16
18 | A11G A51G U100C | 1.25
19 | U9C C16U A23G U38C A59G A116G U132C | 1.1
20 | U9C A64G A110G A111G | 0.03
21 | U9C U49C A54C | 1.75

Row | Variant | self-cleavage
22 | A11G A63G A69G G99U | 0.36
23 | U9C U12A U38C A82G A118G U133A | 1.02
24 | U9C U19C G20A A86G A96G A111G | 0.04
25 | U9C U12C G15A A47U U49A A68G | 0.39
26 | U9C A56G C81G A98G A117G | 0
27 | A11G A62G U124A U131C | 0.12
28 | U9C A33G G80A | 0.32
29 | A11G A52U C76U U122C | 0.21
30 | U9G A22G A23U A90G | 0.71
31 | A11G A23G U102C | 1.07
32 | A11G A54G A96G A134G | 0.96
33 | A11G A22G U37C A60G A82G G119A U132C | 0.61
34 | U9C A56G G83A A95G | 0.55
35 | U9C U43A U72G A96G | 0.4
36 | A11G A22G U102C A140G | 1.03
37 | A11G A23G A69G | 1.43
38 | A11G A54G A63G G106A A126G | 0.02
39 | A11C A86U U97G | 0.7
40 | A11G A22G A52G | 1.09
41 | U9C A62G A68G A95G A118U | 0.91
42 | U9C A69G C105U | 0.24

Row | Variant | self-cleavage
43 | U9C A90G A129G U130C | 0.8
44 | U9C U38C A51G A95G U132C U133C | 2.22
45 | U9C U39A U122A | 2.43
46 | A11C A69G A95U U103C | 1.29
47 | U9C C16A U19A | 1.17
48 | A11G A51G A64U U72C A111U | 0.03
49 | U9C A47U U97C | 1.01
50 | U9C U39C A67U A82G G119A U131C | 0.61
51 | A11G A59G A63G A90U A126U | 0.52
52 | U9C A111G U120C | 0.02
53 | A11G A27G A62G A67G A89U | 0.71
54 | U9C U39A A89G A94G | 2.16
55 | U9C A51G A63G A116U | 0.69
56 | C10U A114C A117G A126G | 0
57 | A11G A33G A55U A56G A114G | 0.06
58 | A11G A33G A62G A116G | 0.32
59 | U9G A51G A78G G93C | 0.37
60 | A11C A22G A95G | 0.91
61 | C10U A66G U103C | 0.42
62 | U9C A62G A68G U102C A134G | 2.07
63 | U9C A52C A116G | 0.17

Row | Variant | self-cleavage
64 | U9C U120C U127A | 1.65
65 | U9C A47G A60G C121U | 1.99
66 | U9C U72C U131C | 0.2
67 | U9C A56G A60G A95G | 1.54
68 | A11G A62G G93A | 1.26
69 | U9C U19C A59G A69G A91G | 0.73
70 | A11G A23U A89G U124C | 0.85
71 | A11G A47C A51G | 1.57
72 | A11G A24G U39C A52G A59G A82G | 0.49
73 | A11C A92G U131C | 1.33
74 | U9C A33G U103C | 0.42
75 | A11G A24C U127C | 0.66
76 | U9C A52G A92G U131C | 2.24
77 | U9C U19C U39A A68C U87C A125G U131C | 0.52
78 | C10A A18G A55G | 1.18
79 | U9C A66G G138A | 1.75
80 | U9C C17U A22G A91U | 1.08
81 | U9C U57A U102C | 2
82 | C10U A18G A86G U100C | 1.92
83 | C10A U12C C109A A114G | 0.26
84 | A11G A33G A67G A94U | 0.57
